# Experimental data as given in the supplement of paper PMC10037445.
# Values joined by “and” are separate entries in the source; they are usually repeats but may differ in a detail not shown here. Equal entries are not always repeated. The full ranking holds about 2,900 compounds; the median of “NF-kB SEAP reporter activity, fold change vs agonist alone” is about 0.99, and the highest 2% start at about 2.6. This is one part of the list.
# Columns and labels:
# RAW-Dual [1] = test: NF-kB SEAP reporter activity, fold change vs agonist alone; higher = enhanced NF-kB activity
# Method in brief: (§1)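 After 50 nL of library stock was delivered by pin tool to RAW-Dual macrophages (50,000 cells/well, DMEM, 384-well plates), a PRR agonist was added 1 h later and the plates were kept at 37 °C, 5% CO2. Twenty hours later, IRF was read from supernatant by QuantiLuc luminescence and NF-κB by QuantiBlue absorbance at 620 nm. Reporter activity is stated as fold change over agonist-alone wells. Wells with IncuCyte confluency under 70% of agonist controls in both mask sets were counted as cytotoxic.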
# RAW-Dual [2] = test: NF-kB SEAP reporter activity, fold change vs agonist alone; cytotoxicity flag (confluency mask): not cytotoxic; higher = enhanced NF-kB activity
# Method in brief: as §1
# RAW-Dual [3] = test: NF-kB SEAP reporter activity, fold change vs agonist alone; cytotoxicity flag (confluency mask): cytotoxic (confluency <70% of control); higher = enhanced NF-kB activity
# Method in brief: as §1
# [4] = library stock concentration (final ~1000-fold dilution): 10 mM, cytotoxicity flag (confluency mask): not cytotoxic, agonist: Imiquimod (TLR7) […]
# [5] = library stock concentration (final ~1000-fold dilution): 10 mM, cytotoxicity flag (confluency mask): not cytotoxic, agonist: MPLA (TLR4) […]
# [6] = agonist: ODN 1826 (TLR9) 0.5 ug/mL
# [7] = agonist: Pam2CSK4 (TLR2/6) 0.1 ug/mL
# [8] = agonist: Pam3CSK4 (TLR2/1) 0.1 ug/mL
# [9] = library stock concentration (final ~1000-fold dilution): 10 mM, cytotoxicity flag (confluency mask): cytotoxic (confluency <70% of control), agonist: MPLA (TLR4) […]
# [10] = library stock concentration (final ~1000-fold dilution): 10 mM, cytotoxicity flag (confluency mask): cytotoxic (confluency <70% of control), agonist: Imiquimod (TLR7) […]
smiles,measurement,setting,value
CCN(C)S(=O)(=O)Nc1ccc(F)c(C(=O)c2c[nH]c3ncc(-c4cnc(C5CC5)nc4)cc23)c1F,NF-kB SEAP reporter activity,RAW-Dual [1]; [4],1.24
same,NF-kB SEAP reporter activity,RAW-Dual [1]; [5],1.62
CCN(C)S(=O)(=O)Nc1ccc(F)c(C(=O)c2c[nH]c3ncc(-c4cnc(C5CC5)nc4)cc23)c1F (library stock concentration (final ~1000-fold dilution): 10 mM),NF-kB SEAP reporter activity,RAW-Dual [2]; agonist: LPS (TLR4) 0.1 ug/mL,3.3
same,NF-kB SEAP reporter activity,RAW-Dual [2]; [6],1.55
same,NF-kB SEAP reporter activity,RAW-Dual [2]; [7],0.469
same,NF-kB SEAP reporter activity,RAW-Dual [2]; [8],0.764
COc1cc2c(Nc3ccc(Br)cc3F)ncnc2cc1OCC1CCN(C)CC1 (library stock concentration (final ~1000-fold dilution): 2 mM),NF-kB SEAP reporter activity,RAW-Dual [2]; agonist: LPS (TLR4) 0.1 ug/mL,1.92
same,NF-kB SEAP reporter activity,RAW-Dual [2]; [6],0.275
same,NF-kB SEAP reporter activity,RAW-Dual [2]; [7],1.15
same,NF-kB SEAP reporter activity,RAW-Dual [2]; [8],1.22
COc1cc2c(Nc3ccc(Br)cc3F)ncnc2cc1OCC1CCN(C)CC1,NF-kB SEAP reporter activity,"RAW-Dual [1]; library stock concentration (final ~1000-fold dilution): 2 mM, cytotoxicity flag (confluency mask): not cytotoxic, agonist: Imiquimod (TLR7) […]",1.12
same,NF-kB SEAP reporter activity,"RAW-Dual [1]; library stock concentration (final ~1000-fold dilution): 2 mM, cytotoxicity flag (confluency mask): not cytotoxic, agonist: MPLA (TLR4) […]",1.35
CCOC(=O)C1=C(COCCN)NC(C)=C(C(=O)OC)C1c1ccccc1Cl.O=S(=O)(O)c1ccccc1 (stereo not given),NF-kB SEAP reporter activity,RAW-Dual [1]; [9],2.58
CC12CCC3c4ccc(O)cc4CCC3C1CC(O)C2O (stereo not given) (library stock concentration (final ~1000-fold dilution): 10 mM),NF-kB SEAP reporter activity,RAW-Dual [2]; agonist: LPS (TLR4) 0.1 ug/mL,1.1
same,NF-kB SEAP reporter activity,RAW-Dual [2]; [6],1.1
same,NF-kB SEAP reporter activity,RAW-Dual [2]; [7],1.16
same,NF-kB SEAP reporter activity,RAW-Dual [2]; [8],1.33
CC12CCC3c4ccc(O)cc4CCC3C1CC(O)C2O (stereo not given),NF-kB SEAP reporter activity,RAW-Dual [1]; [4],1.11
same,NF-kB SEAP reporter activity,RAW-Dual [1]; [5],1.08
Cc1ccc(NC(=O)c2ccc(CN3CCN(C)CC3)cc2)cc1Nc1nccc(-c2cccnc2)n1 (library stock concentration (final ~1000-fold dilution): 10 mM),NF-kB SEAP reporter activity,RAW-Dual [2]; agonist: LPS (TLR4) 0.1 ug/mL,1.23
same,NF-kB SEAP reporter activity,RAW-Dual [2]; [6],0.212
same,NF-kB SEAP reporter activity,RAW-Dual [2]; [7],1.55
same,NF-kB SEAP reporter activity,RAW-Dual [2]; [8],1.42
Cc1ccc(NC(=O)c2ccc(CN3CCN(C)CC3)cc2)cc1Nc1nccc(-c2cccnc2)n1,NF-kB SEAP reporter activity,RAW-Dual [1]; [4],1.31
same,NF-kB SEAP reporter activity,RAW-Dual [1]; [5],1.69
CN(C)CC/C=C1\c2ccccc2COc2ccccc21.Cl (library stock concentration (final ~1000-fold dilution): 10 mM),NF-kB SEAP reporter activity,RAW-Dual [2]; agonist: LPS (TLR4) 0.1 ug/mL,1.31
same,NF-kB SEAP reporter activity,RAW-Dual [2]; [6],0.893
same,NF-kB SEAP reporter activity,RAW-Dual [2]; [7],0.954
same,NF-kB SEAP reporter activity,RAW-Dual [2]; [8],1.1
CN(C)CC/C=C1\c2ccccc2COc2ccccc21.Cl,NF-kB SEAP reporter activity,RAW-Dual [1]; [4],1.97
same,NF-kB SEAP reporter activity,RAW-Dual [1]; [5],1.24
O=C(c1ccc(F)c(F)c1Nc1ccc(I)cc1F)N1CC(O)(C2CCCCN2)C1 (stereo not given) (library stock concentration (final ~1000-fold dilution): 10 mM),NF-kB SEAP reporter activity,RAW-Dual [3]; agonist: LPS (TLR4) 0.1 ug/mL,0.248
same,NF-kB SEAP reporter activity,RAW-Dual [3]; [6],0.184
same,NF-kB SEAP reporter activity,RAW-Dual [3]; [7],0.0656
same,NF-kB SEAP reporter activity,RAW-Dual [3]; [8],0.122
O=C(c1ccc(F)c(F)c1Nc1ccc(I)cc1F)N1CC(O)(C2CCCCN2)C1 (stereo not given),NF-kB SEAP reporter activity,RAW-Dual [1]; [10],0.122
same,NF-kB SEAP reporter activity,RAW-Dual [1]; [9],0.246
CCc1cc2c(cc1N1CCC(N3CCOCC3)CC1)C(C)(C)c1[nH]c3cc(C#N)ccc3c1C2=O,NF-kB SEAP reporter activity,RAW-Dual [1]; [4],1.14
same,NF-kB SEAP reporter activity,RAW-Dual [1]; [5],1.07
CCc1cc2c(cc1N1CCC(N3CCOCC3)CC1)C(C)(C)c1[nH]c3cc(C#N)ccc3c1C2=O (library stock concentration (final ~1000-fold dilution): 10 mM),NF-kB SEAP reporter activity,RAW-Dual [2]; agonist: LPS (TLR4) 0.1 ug/mL,1.36
same,NF-kB SEAP reporter activity,RAW-Dual [2]; [6],1.06
same,NF-kB SEAP reporter activity,RAW-Dual [2]; [7],0.75
same,NF-kB SEAP reporter activity,RAW-Dual [2]; [8],1.44
COc1ccc(NS(=O)(=O)c2sc3ccc(Cl)cc3c2C)cc1N1CCNCC1,NF-kB SEAP reporter activity,RAW-Dual [1]; [10],1.64
same,NF-kB SEAP reporter activity,RAW-Dual [1]; [9],0.735
COc1ccc(NS(=O)(=O)c2sc3ccc(Cl)cc3c2C)cc1N1CCNCC1 (library stock concentration (final ~1000-fold dilution): 10 mM),NF-kB SEAP reporter activity,RAW-Dual [3]; agonist: LPS (TLR4) 0.1 ug/mL,0.967
same,NF-kB SEAP reporter activity,RAW-Dual [3]; [6],0.263
same,NF-kB SEAP reporter activity,RAW-Dual [3]; [7],0.622
same,NF-kB SEAP reporter activity,RAW-Dual [3]; [8],0.576
COc1ccc2c(c1O)-c1c(O)c(OC)cc3c1C(C2)[N+](C)(C)CC3 (stereo not given) (library stock concentration (final ~1000-fold dilution): 10 mM),NF-kB SEAP reporter activity,RAW-Dual [2]; agonist: LPS (TLR4) 0.1 ug/mL,1.1 and 1.18
same,NF-kB SEAP reporter activity,RAW-Dual [2]; [6],0.935 and 1.11
same,NF-kB SEAP reporter activity,RAW-Dual [2]; [7],1.01 and 1.08
same,NF-kB SEAP reporter activity,RAW-Dual [2]; [8],0.967 and 1.08
CC1CNc2c(cccc2S(=O)(=O)NC(CCCNC(=N)N)C(=O)N2CCC(C)CC2C(=O)O)C1 (stereo not given),NF-kB SEAP reporter activity,RAW-Dual [1]; [4],0.988
same,NF-kB SEAP reporter activity,RAW-Dual [1]; [5],0.953
CC1CNc2c(cccc2S(=O)(=O)NC(CCCNC(=N)N)C(=O)N2CCC(C)CC2C(=O)O)C1 (stereo not given) (library stock concentration (final ~1000-fold dilution): 10 mM),NF-kB SEAP reporter activity,RAW-Dual [2]; agonist: LPS (TLR4) 0.1 ug/mL,0.837
same,NF-kB SEAP reporter activity,RAW-Dual [2]; [6],1.01
same,NF-kB SEAP reporter activity,RAW-Dual [2]; [7],0.87
same,NF-kB SEAP reporter activity,RAW-Dual [2]; [8],1.05
CC12C=CC(=O)NC1CCC1C2CCC2(C)C(C(=O)Nc3cc(C(F)(F)F)ccc3C(F)(F)F)CCC12 (stereo not given) (library stock concentration (final ~1000-fold dilution): 10 mM),NF-kB SEAP reporter activity,RAW-Dual [2]; agonist: LPS (TLR4) 0.1 ug/mL,0.556
same,NF-kB SEAP reporter activity,RAW-Dual [2]; [6],0.406
same,NF-kB SEAP reporter activity,RAW-Dual [2]; [7],0.441
same,NF-kB SEAP reporter activity,RAW-Dual [2]; [8],0.399
CC12C=CC(=O)NC1CCC1C2CCC2(C)C(C(=O)Nc3cc(C(F)(F)F)ccc3C(F)(F)F)CCC12 (stereo not given),NF-kB SEAP reporter activity,RAW-Dual [1]; [4],0.289
same,NF-kB SEAP reporter activity,RAW-Dual [1]; [5],0.473
Cl.Cl.OCCN1CCN(CCCN2c3ccccc3Sc3ccc(C(F)(F)F)cc32)CC1 (library stock concentration (final ~1000-fold dilution): 10 mM),NF-kB SEAP reporter activity,RAW-Dual [3]; agonist: LPS (TLR4) 0.1 ug/mL,0.742
same,NF-kB SEAP reporter activity,RAW-Dual [3]; [6],0.707
same,NF-kB SEAP reporter activity,RAW-Dual [3]; [7],0.568
same,NF-kB SEAP reporter activity,RAW-Dual [3]; [8],0.662
Cl.Cl.OCCN1CCN(CCCN2c3ccccc3Sc3ccc(C(F)(F)F)cc32)CC1,NF-kB SEAP reporter activity,RAW-Dual [1]; [10],1.91
same,NF-kB SEAP reporter activity,RAW-Dual [1]; [9],1.39
CCCc1nn(C)c2c(=O)[nH]c(-c3cc(S(=O)(=O)N4CCN(C)CC4)ccc3OCC)nc12.O=C(O)CC(O)(CC(=O)O)C(=O)O (library stock concentration (final ~1000-fold dilution): 10 mM),NF-kB SEAP reporter activity,RAW-Dual [2]; agonist: LPS (TLR4) 0.1 ug/mL,1.33
same,NF-kB SEAP reporter activity,RAW-Dual [2]; [6],1.28
same,NF-kB SEAP reporter activity,RAW-Dual [2]; [7],1.03
same,NF-kB SEAP reporter activity,RAW-Dual [2]; [8],1.2
